PubChem BioAssay AID504332 (National Center for Advancing Translational Sciences (NCATS), 2011)
In all, about 350,000 compounds went through this assay and about 31,000 (8.9%) were called active. The inconclusive results got no clear call from the source; some entries with a clear call stand among them for comparison. Calls follow the shape of the dose curve; as a rule, active = well fitted inhibition curve with a large enough effect; inconclusive = small, poorly fitted or top-dose-only effect; inactive = no such curve, though single readings can be large or run the other way. Potencies of inconclusive entries are doubtful fits and often do not repeat.

Target: Histone-lysine N-methyltransferase EHMT2 (Homo sapiens) (UniProt Q96KQ7)
Sequence of UniProt Q96KQ7 (Q96KQ7 whole entry, looked up): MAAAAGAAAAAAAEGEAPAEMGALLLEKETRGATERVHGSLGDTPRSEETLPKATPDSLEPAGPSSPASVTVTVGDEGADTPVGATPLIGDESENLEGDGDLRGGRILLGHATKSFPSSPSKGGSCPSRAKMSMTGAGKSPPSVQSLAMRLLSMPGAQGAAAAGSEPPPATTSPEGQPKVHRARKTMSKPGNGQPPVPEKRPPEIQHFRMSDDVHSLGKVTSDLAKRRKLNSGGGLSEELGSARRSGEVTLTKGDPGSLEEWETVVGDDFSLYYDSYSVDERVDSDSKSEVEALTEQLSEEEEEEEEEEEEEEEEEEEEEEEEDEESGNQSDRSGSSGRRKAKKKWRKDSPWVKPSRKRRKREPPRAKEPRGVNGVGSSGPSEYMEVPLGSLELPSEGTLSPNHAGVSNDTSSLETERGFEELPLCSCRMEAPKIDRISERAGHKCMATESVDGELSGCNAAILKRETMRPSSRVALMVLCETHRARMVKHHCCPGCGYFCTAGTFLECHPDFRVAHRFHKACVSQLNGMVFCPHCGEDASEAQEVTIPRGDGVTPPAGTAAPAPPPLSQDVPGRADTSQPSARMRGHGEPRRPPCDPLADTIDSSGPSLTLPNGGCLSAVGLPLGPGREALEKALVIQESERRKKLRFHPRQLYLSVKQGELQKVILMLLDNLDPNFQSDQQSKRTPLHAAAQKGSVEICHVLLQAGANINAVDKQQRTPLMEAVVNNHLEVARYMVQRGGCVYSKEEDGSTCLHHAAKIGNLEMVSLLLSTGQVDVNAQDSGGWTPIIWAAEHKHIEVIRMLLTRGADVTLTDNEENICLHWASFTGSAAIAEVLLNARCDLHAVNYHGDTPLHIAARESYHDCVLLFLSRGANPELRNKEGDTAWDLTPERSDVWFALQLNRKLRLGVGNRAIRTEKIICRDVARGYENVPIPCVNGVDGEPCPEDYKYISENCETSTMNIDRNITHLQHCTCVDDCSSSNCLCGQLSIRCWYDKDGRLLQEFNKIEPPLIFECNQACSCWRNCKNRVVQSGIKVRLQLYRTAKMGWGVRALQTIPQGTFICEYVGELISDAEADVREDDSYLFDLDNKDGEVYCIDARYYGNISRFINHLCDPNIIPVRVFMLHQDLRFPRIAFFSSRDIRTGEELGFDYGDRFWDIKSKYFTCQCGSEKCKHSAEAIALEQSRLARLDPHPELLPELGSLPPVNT
Experiment: qHTS Assay for Inhibitors of Histone Lysine Methyltransferase G9a; also: nearly all actives have a fitted effect of over 75% in size
Conditions: G9a H3K9 monomethylation, AlphaScreen, 2 h; activity, negative = inhibition: at 59 µM (top of the series) unless noted
Method in brief: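 AlphaScreen read-out: biotin-H3K9 peptide (500 nM) methylation by 20 nM enzyme with 20 uM SAM, 2 h at room temperature after 15 min compound preincubation; anti-monomethyl H3K9 antibody plus donor/acceptor beads, 10 min dark.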
% is scaled to controls: 0 for no effect and ±100 for the full control effect; potency is read from the fitted curve at half-maximal effect; tags tell the direction and shape of the fitted curve.

Question: Which Potency does the source give for `Cn1c2c(c(=O)n(C)c1=O)C1c3ccccc3OCC1C(C)(C)O2` (stereo unspecified) here?
Answer: inconclusive: 22.4 µM [inhibitor, partial curve, poor fit]

Question: How did the Potency turn out when `COC(=O)c1ccc(C2NC(=O)c3c(sc(C)c3C)N2)cc1` (stereo unspecified) was run?
Answer: active: 5.62 µM

Question: With `COc1cc(OC)c(NC(=O)Nc2ccc(OC)c(OC)c2)cc1Cl` as the compound, how does the Potency read?
Answer: inconclusive: 28.2 µM [inhibitor, partial curve, poor fit]

Question: `CCn1c(CNC(=O)c2ccccc2)nnc1SCC(=O)N1CCN(c2ccccc2)CC1` was tested. Which Potency did it give?
Answer: inconclusive: 35.5 µM [inhibitor, partial curve, poor fit]

Question: For `Cc1cc(C)cc(OCC(=O)Nc2ccc(N3CCOCC3)cc2N2CCOCC2)c1`, which Potency is on record?
Answer: inconclusive: 3.98 µM [inhibitor, single point]

Question: Which “activity, negative = inhibition” value does the source give for `COc1cc(CNCCSc2nnnn2C)ccc1OCc1ccc(Cl)cc1Cl` here?
Answer: inactive: -31.5%

Question: Which Potency does the source give for `CCOc1nc(Nc2ccc(OC)c(Cl)c2)nc(N2CCN(c3ccc(OC)cc3)CC2)n1` here?
Answer: active: 11.2 µM

Question: For `COC(=O)c1ccc(COC(=O)c2ccccc2OC)cc1`, which “activity, negative = inhibition” value is on record?
Answer: inactive: 43.4%

Question: `CC(=O)NN1C(=O)c2ccccc2NC1c1ccccc1O` (stereo unspecified) was tested. Which “activity, negative = inhibition” value did it give?
Answer: inactive: 1.53% [at 102 µM]

Question: Which Potency does the source give for `CCCOc1ccc(CNC(=O)c2ccc3c(c2)N(CC)CCS3)cc1` here?
Answer: inconclusive: 79.4 µM [inhibitor, single point]

Question: Which “activity, negative = inhibition” value does the source give for `COc1cc(NC(=O)N2CCC(CN3CCCCCC3)CC2)cc(OC)c1OC` here?
Answer: inactive: -43%

Question: Which activity, negative = inhibition does the source give for `CC(=O)Nc1ccc(-c2csc(NNC(=O)c3ccc(C)cc3)n2)cc1` here?
Answer: inconclusive: -89.3% [inhibitor]

Question: For `C=CCNC(=O)c1scc2c1CCCC2`, which Potency is on record?
Answer: inconclusive: 1.41 µM [inhibitor, full curve, poor fit]

Question: How did the “activity, negative = inhibition” value turn out when `CC(C)CC(C(=O)NCC1CCN(Cc2ccc(F)cc2)CC1)N1Cc2ccccc2C1=O` (stereo unspecified) was run?
Answer: inactive: -43.8%

Question: Which Potency does the source give for `Cc1ccnc(SCC(=O)c2ccc([N+](=O)[O-])cc2)n1` here?
Answer: active: 12.6 µM

Question: How did the “activity, negative = inhibition” value turn out when `O=c1nc(Nc2ccc([N+](=O)[O-])cc2)[nH]c(=O)[nH]1` was run?
Answer: inactive: 14.4% [at 102 µM]

Question: How did the “activity, negative = inhibition” value turn out when `COc1ccc(NC(=O)C2CCC(CNS(=O)(=O)c3ccc(Br)s3)CC2)c(OC)c1` (stereo unspecified) was run?
Answer: inactive: -37%

Question: Which Potency does the source give for `COc1ccc(-n2ccnc2SCC(=O)NCc2ccco2)c(OC)c1` here?
Answer: inconclusive: 50.1 µM [inhibitor, partial curve]

Question: For `OCCNCCNCc1ccc(-c2ccccc2)cc1`, which Potency is on record?
Answer: inconclusive: 14.1 µM [inhibitor, partial curve]

Question: How did the Potency turn out when `CC1CCCCC1NC(=O)c1cncc(Br)c1` (stereo unspecified) was run?
Answer: inconclusive: 7.08 µM [inhibitor, single point]

Question: `O=C(CSc1nccn1Cc1ccccc1)NCc1ccccc1` was tested. Which Potency did it give?
Answer: inconclusive: 31.6 µM [inhibitor, single point]

Question: With `Cc1ccc(S(=O)(=O)CCC(=O)OCC(=O)Nc2cc(S(=O)(=O)N3CCOCC3)ccc2C)cc1` as the compound, how does the Potency read?
Answer: inconclusive: 89.1 µM [inhibitor, single point]

Question: `C/C(=N\NC(=O)c1cnccn1)c1ccc([N+](=O)[O-])cc1` was tested. Which “activity, negative = inhibition” value did it give?
Answer: inactive: 9.99% [at 102 µM]

Question: `O=c1c2ccccc2[nH]c(=S)n1CCN1CCC(=C(c2ccc(F)cc2)c2ccc(F)cc2)CC1` was tested. Which Potency did it give?
Answer: inconclusive: 44.7 µM [inhibitor, partial curve, poor fit]

Question: For `O=C(CSc1nc(-c2ccccc2)nc2cc(=O)[nH]n12)Nc1ccccc1`, which “activity, negative = inhibition” value is on record?
Answer: inactive: 34.1%

Question: For `CC(=O)c1ccc(NC(=O)C(C)NCc2ccc(Cl)cc2)cc1` (stereo unspecified), which “activity, negative = inhibition” value is on record?
Answer: inactive: 7.53% [at 102 µM]

Question: With `O=C1Cc2ccccc2C(c2ccc(Br)cc2)N1` (stereo unspecified) as the compound, how does the “activity, negative = inhibition” value read?
Answer: inactive: 0.297%

Question: `O=C(/C=C/c1ccccc1)Oc1ccccc1C(=S)N1CCOCC1` was tested. Which Potency did it give?
Answer: active: 50.1 µM

Question: How did the Potency turn out when `CCCc1cc(=O)[nH]c(SCC(=O)N(CCOC)c2c(N)n(Cc3ccccc3)c(=O)[nH]c2=O)n1` was run?
Answer: active: 50.1 µM

Question: Which Potency does the source give for `CC(=O)N1CCN(CC(=O)O)CC1` here?
Answer: inconclusive: 89.1 µM [inhibitor, single point]

Question: Which Potency does the source give for `CN(C)c1c([N+](=O)[O-])cc2[nH]c(=O)[nH]c2c1[N+](=O)[O-]` here?
Answer: inconclusive: 39.8 µM [inhibitor, partial curve, poor fit]

Question: How did the Potency turn out when `CCOC(=O)Cn1c(CN2CCOCC2)nc2c1c(=O)[nH]c(=O)n2C` was run?
Answer: inconclusive: 28.2 µM [inhibitor, single point]

Question: With `COc1ccc(/C(C)=N/NC(=O)CNC(=O)/C=C\c2ccccc2OC)c(OC)c1` as the compound, how does the “activity, negative = inhibition” value read?
Answer: inactive: 1.74% [at 102 µM]

Question: With `O=C(O)c1c2c(nc3ccc(S(=O)(=O)N4CCC(C(=O)N5CCCCC5)CC4)cc13)CCCC2` as the compound, how does the Potency read?
Answer: active: 50.1 µM

Question: With `S=C(Nc1cccc(Cl)c1Cl)NC1CCN(Cc2ccccc2)CC1` as the compound, how does the Potency read?
Answer: inconclusive: 14.1 µM [inhibitor, partial curve, poor fit]

Question: How did the Potency turn out when `Cc1ccc(-c2nc3ncccn3c2Nc2ccc3c(c2)OCO3)o1` was run?
Answer: active: 10 µM

Question: For `O=C(Cn1nc(C(F)(F)F)c2c1CCCC2)NCc1ccco1`, which Potency is on record?
Answer: inconclusive: 79.4 µM [inhibitor, single point]

Question: How did the Potency turn out when `O=C(c1ccc(COc2ccc(F)cc2)o1)n1cc(Br)cn1` was run?
Answer: inconclusive: 22.4 µM [inhibitor, partial curve, poor fit]

Question: `CC(C)CC(COCc1ccc(Cl)cc1)N1CCN(C(=O)c2ccc(Cl)cc2Cl)CCC1=O` (stereo unspecified) was tested. Which Potency did it give?
Answer: inconclusive: 63.1 µM [inhibitor, single point]

Question: Which Potency does the source give for `Cc1cc(C(=O)NCC(c2ccco2)N(C)C)no1` (stereo unspecified) here?
Answer: inconclusive: 56.2 µM [inhibitor, partial curve, poor fit]

Question: How did the Potency turn out when `Cc1ccc(C(=O)c2ccccc2C(=O)OCC(=O)NCCc2ccccc2)cc1` was run?
Answer: inconclusive: 89.1 µM [inhibitor, single point]

Question: How did the activity, negative = inhibition turn out when `CCn1c(-c2ccoc2C)n[nH]c1=S` was run?
Answer: inconclusive: -86.4% [inhibitor]

Question: With `O=C(OCn1ncc(Cl)c(Cl)c1=O)c1cccc(C(F)(F)F)c1` as the compound, how does the Potency read?
Answer: inconclusive: 89.1 µM [inhibitor, single point]

Question: `CSc1sc(C(=O)NNC(=O)c2ccc(Cl)cc2)c2c1C=CCC2` was tested. Which Potency did it give?
Answer: inconclusive: 70.8 µM [inhibitor, partial curve, poor fit]

Question: `NC(N)=NC[C@@H]1COC2(CCCCC2)O1` was tested. Which “activity, negative = inhibition” value did it give?
Answer: inactive: 28.9% [at 21.5 µM]

Question: `O=C1CC(N2CCCN(C3CC(=O)N(c4ccc(F)cc4)C3=O)CC2)C(=O)N1c1ccc(F)cc1` (stereo unspecified) was tested. Which Potency did it give?
Answer: inconclusive: 0.631 µM [inhibitor, single point]
